Among the data in the RNAGym collection of RNA variant scans (doi:10.7554/elife.90254) are self-cleavage values, retold here.

The labels stand for the following.
B1: LINE1-mini (parent)
chain: GGCAGAGCUCAACACAGCGUGGCAAAGUGGCUGUGGCUAGACUGCC

Read counts are not given, so values of variants with three or more changes are uncertain.

The variants in this series derive from B1. The series is described as follows: self-cleavage, relative activity (ratio to wild type); higher = more cleavage; in vitro, sequencing; the parent is a self-cleaving ribozyme.
Regarding C3G A4U C37A C46G, the self-cleavage worked out at 0.04.

For C3A C10G G22C, the self-cleavage came to 0.04.

Turning to C3A C8G A12U G27C G36U, the self-cleavage stood at 0.59.

As for C3A G36C C45G, the self-cleavage worked out at 0.64.

As for C3A G5C C23U G30A, the self-cleavage came out at 0.23.

For the variant C3A C13G C23A G29A G35U G44A, the self-cleavage turned out to be 0.4.

For the variant C3A C15G C18A G36C C45G, the self-cleavage was 0.05.

As for C3G C8A C15U G27U U34G, the self-cleavage amounted to 0.26.

For C3G A12U C23U G36A, the self-cleavage stood at 0.09.

On to C3G A14C G40U U43G, for which the self-cleavage was 0.07.

Regarding C3G A25U A26G U34G U38A C46A, the self-cleavage is 0.09.

C3G C8U A12C G17U G22A G30U G35C: the self-cleavage amounted to 0.02.

Regarding C3A G21U C46U, the self-cleavage is 1.08.

With C3A U9G U20A G22U C42A, the self-cleavage was 0.05.

Take C3G A24U C37A C42G C46G: the self-cleavage is 0.03.

Take C3A A14G C31G: the self-cleavage worked out at 0.09.

Turning to C3A G17A C31G U38C G40C, the self-cleavage turned out to be 0.08.

For C3A A16G C31A, the self-cleavage came to 0.03.

Regarding C3A G5A A12C A41C, the self-cleavage stood at 0.04.

As for C3A G22A G29C U43G, the self-cleavage is 0.02.

Consider C3G C8U U9C C10G C31U U34C, for which the self-cleavage came to 0.03.

Turning to C3A C15U U20G G21A A25C, the self-cleavage was determined as 0.06.

As to C3A G5A C8U A12G G36U U38C A39C, the self-cleavage was 0.95.

With C3G C10U G22A, the self-cleavage turned out to be 0.62.

As to C3A A14U A16C, the self-cleavage turned out to be 0.04.

As to C3A G5C G36A C37U, the self-cleavage stood at 0.03.

C3A U32C C46A: the self-cleavage was 0.08.

For C3A C13U C23G A25G G27U, the self-cleavage is 0.23.

Take C3A A16C A26U G27A: the self-cleavage was determined as 0.06.

Turning to C3G A14U C18A, the self-cleavage worked out at 0.03.

Take C3A U20C G21C: the self-cleavage came out at 0.03.

On to C3G C8U A11U U20C, for which the self-cleavage worked out at 0.04.

As for C3G A39U C45G, the self-cleavage came to 0.1.

Consider C3G A14C G30U, for which the self-cleavage stood at 0.12.

For C3G A11C G17A G27U U28G, the self-cleavage was 0.03.

With C3A G5U U9A A24U U34A G36A, the self-cleavage worked out at 0.13.

Turning to C3A C23G C31U G40C, the self-cleavage is 0.18.

Turning to C3A C10U A24U G29C U32C U38A, the self-cleavage amounted to 0.02.

Consider C3A G27A U28A A39G C42U, for which the self-cleavage worked out at 0.12.

In the case of C3A U28G C37A, the self-cleavage is 0.19.

For C3G A4C G5U C10A C13G G22C, the self-cleavage came to 0.03.

Take C3A G19A A39U: the self-cleavage worked out at 0.42.

As to C3A C8U A11C C18U A26G U28A U32G, the self-cleavage was found to be 0.

In the case of C3A C8U U32A, the self-cleavage was 0.05.

Take C3A C10A A11U A14U G27C: the self-cleavage was determined as 0.01.

With C3G A4C U38A G40A, the self-cleavage was 0.1.

On to C3A C31G G35A C46G, for which the self-cleavage came to 0.04.

Regarding C3A C8G U20C A26G G35C C37U, the self-cleavage was 0.03.

Consider C3G C8U G19U G30A, for which the self-cleavage was found to be 0.36.

In the case of C3A A24G G33C, the self-cleavage is 0.08.

With C3A C13G A26U C31G G40C G44U, the self-cleavage came to 0.

On to C3G A4U G22U A41C, for which the self-cleavage was found to be 0.05.

For the variant C3A A14C C18A, the self-cleavage stood at 0.1.

With C3G C10U G21U G33C A41U, the self-cleavage worked out at 0.04.

For C3G C10G C13G, the self-cleavage was determined as 0.01.

As to C3A C10U A11U G30U G35A, the self-cleavage worked out at 0.05.

As to C3A C18U U38G A39U, the self-cleavage was 0.06.

Turning to C3G C8A G27U G36A, the self-cleavage is 0.13.

Regarding C3A G29A G36U C45A, the self-cleavage was found to be 0.13.

C3A C10A U43C C45G: the self-cleavage was 0.01.

For C3A C8A A14G G19U U28G U34C G44U C46U, the self-cleavage was 0.02.

For C3G C8U C13G G21A G33U, the self-cleavage came out at 0.66.

For C3A G27U C31U, the self-cleavage amounted to 0.15.

In the case of C3G A4C G7A C8A U34C, the self-cleavage was found to be 0.35.

Regarding C3G A4G A6U C18G G44C, the self-cleavage is 0.4.

C3A U20G U38G: the self-cleavage is 0.13.

Take C3G A11C G29A G33C C46U: the self-cleavage came out at 0.01.

C3A C15A A16G G27U C42A: the self-cleavage was 0.06.

With C3G C10A G17U C18A, the self-cleavage came to 0.01.

C3A G5C G35A: the self-cleavage was 0.37.

As for C3A C18U G19U G30U, the self-cleavage stood at 0.07.

Turning to C3A U20G C23U C37G C42G, the self-cleavage was 0.01.

For the variant C3A G5U G35C, the self-cleavage stood at 0.11.

As to C3G A4G C42A, the self-cleavage came out at 0.12.

As for C3A G7A G35C, the self-cleavage came out at 0.49.

Take C3A G7C G33C G36U: the self-cleavage was determined as 0.03.

As for C3G A16G A24G A25U G35C U43C, the self-cleavage turned out to be 0.05.

In the case of C3A A12U G36U A41U, the self-cleavage is 0.12.

For C3A G17U C23U C37G, the self-cleavage amounted to 0.23.

For C3A U9A G21U C23A C46G, the self-cleavage was found to be 0.89.

In the case of C3A C15U C18G, the self-cleavage is 0.14.

C3G A16U C46A: the self-cleavage came out at 0.1.

On to C3A U9C C13A C15U, for which the self-cleavage was 0.05.

For C3A G5U C8U C10A A41C, the self-cleavage is 0.07.

On to C3A C13U A26C C42G G44C C46U, for which the self-cleavage is 0.12.

As for C3A C18U U32A U43G, the self-cleavage was determined as 0.07.

With C3G A6G G30A C37A, the self-cleavage came to 0.02.

C3G A4U A25U: the self-cleavage was found to be 0.21.

C3A C23A U32A G36U: the self-cleavage is 0.22.

Regarding C3A U9C G17A A26U U34C, the self-cleavage came to 0.04.

C3A G5U U20C A26U: the self-cleavage stood at 0.11.

C3A C23A A25G G33U: the self-cleavage is 0.02.

For C3A G22U G30C, the self-cleavage was 0.62.

C3A U34A A41U: the self-cleavage was 0.2.

Consider C3A A16U U20G G36C A39C, for which the self-cleavage came out at 0.16.

For the variant C3A U20A G29A C31A, the self-cleavage amounted to 0.16.

In the case of C3G A16G U20G G36C U43A, the self-cleavage turned out to be 0.04.

As for C3A G17A U20G C23A, the self-cleavage stood at 0.08.

As to C3A C13G U34G, the self-cleavage was 0.04.

For the variant C3A A16C G17U, the self-cleavage was found to be 0.27.

Regarding C3A C10G C18G, the self-cleavage was 0.03.

Consider C3A C15U G27A, for which the self-cleavage stood at 0.33.

Regarding C3G A4C G30U A39U, the self-cleavage was found to be 0.28.

For the variant C3A G17A A24C, the self-cleavage came to 0.09.

As to C3A U28A C45A, the self-cleavage amounted to 0.13.

As to C3A C8A U9G U28G G44U, the self-cleavage was found to be 0.03.

In the case of C3A C15U G17U A39U, the self-cleavage worked out at 0.09.

Turning to C3A U9A A39U, the self-cleavage is 0.14.

For the variant C3A C8G G30U, the self-cleavage came out at 0.13.

With C3G C10G G21U, the self-cleavage is 0.03.

As for C3A C10A G33A U38C A39U, the self-cleavage is 0.04.

On to C3A C8U G22C G27A G33C, for which the self-cleavage was 1.16.

In the case of C3G A16U A24G, the self-cleavage stood at 0.04.

For the variant C3A C10A C13G C15A A16C G19U A39U G44A, the self-cleavage stood at 0.01.

For C3A A14C U32G, the self-cleavage was 0.11.

C3G A25U A39U: the self-cleavage worked out at 0.26.

Regarding C3A C31A G33C G40U C42A, the self-cleavage came out at 0.15.

On to C3A G30U C37U, for which the self-cleavage was 1.68.

Take C3A U9C C13G: the self-cleavage was 0.05.

C3A C10A G19U U28G: the self-cleavage stood at 0.07.

As for C3A G7U U9G G22U G27C C31A G35C, the self-cleavage was 0.2.

Take C3A G36A C45U: the self-cleavage turned out to be 0.36.

On to C3A G19C G21A G27U C45U, for which the self-cleavage was determined as 0.19.

With C3A A14C G17U C18U G33A, the self-cleavage is 0.05.

In the case of C3A G17C G21C A26C G35A, the self-cleavage was determined as 0.12.

In the case of C3G C10A G17A A26C G33U, the self-cleavage is 0.05.

As for C3A A12G C31A G35C U38G, the self-cleavage was 0.08.

C3G C8G G30U: the self-cleavage came out at 2.81.

C3A G27A G30U G36A G44A: the self-cleavage is 0.33.

With C3G A11G C18G C23A, the self-cleavage worked out at 0.03.

With C3A G21A G36A A39U G40U U43G, the self-cleavage was 1.2.

Turning to C3A G27A G40A C42G, the self-cleavage was determined as 0.1.

C3A G7U G27A C31A: the self-cleavage stood at 0.48.

For the variant C3G A11U A14U G36U C45G, the self-cleavage amounted to 0.06.

Consider C3G A4U G33C U38A, for which the self-cleavage is 0.11.

On to C3A G17A C37G G44U, for which the self-cleavage was found to be 0.03.

In the case of C3A C8A U43C, the self-cleavage amounted to 0.2.

As for C3A C13A G19C, the self-cleavage is 0.46.

On to C3A C23G C31U G44U C46A, for which the self-cleavage was 0.02.

On to C3A C10G A11G U34A A41C C42A G44A, for which the self-cleavage is 0.01.

Regarding C3G C8U C31G, the self-cleavage was found to be 0.96.

Turning to C3G C8U G27C G40A, the self-cleavage amounted to 0.06.

Regarding C3G C10A C15A G17C U20A G29C, the self-cleavage stood at 0.02.

C3A C10U G30A G40A: the self-cleavage amounted to 0.09.

In the case of C3G A6C G40C, the self-cleavage came to 0.07.

On to C3G A6C G40U, for which the self-cleavage was determined as 0.1.

Take C3G C10A U28G C37A: the self-cleavage is 0.04.

On to C3A G5U G19C G22A A26U G27C, for which the self-cleavage was 0.02.

In the case of C3A G22C C31A, the self-cleavage is 0.18.

As for C3A C31U C37A, the self-cleavage amounted to 0.1.

With C3A U9G C13A C31A G35U, the self-cleavage was determined as 0.3.

On to C3A G7A C18G C46U, for which the self-cleavage stood at 0.08.

Take C3A U20C A26C: the self-cleavage worked out at 0.13.

With C3A C10A C37G C46G, the self-cleavage was 0.01.

As for C3G A12U U20C U32C U34A, the self-cleavage turned out to be 0.05.

For C3A U9A U43C C45A, the self-cleavage turned out to be 0.25.

With C3A C8A U9G U34C, the self-cleavage was found to be 0.95.

With C3A C23U G29C U38A, the self-cleavage amounted to 0.02.

Consider C3A G27A C31U, for which the self-cleavage was 0.35.

Take C3A U28C C37U: the self-cleavage amounted to 0.12.

In the case of C3A C18G G22U A24C, the self-cleavage came out at 0.25.

In the case of C3G C8G G17A, the self-cleavage is 0.24.

As to C3A A16C A25U U28G, the self-cleavage was 0.02.

In the case of C3A G30U C31A U32A, the self-cleavage was 0.17.

C3G A14C C15U C18U: the self-cleavage was found to be 0.14.

C3A G30C C42G C46A: the self-cleavage worked out at 0.02.

Turning to C3A G19A C23A G30A, the self-cleavage was found to be 0.23.
